Assay results from patent US6677310B1, “Ring-expanded nucleosides and nucleotides” (Nabi, priority 1999, dated 2004).

Test system: NCI-H322M
Settings: for CC50: read-out: LC50, NCI-H322M (Non-Small Cell Lung Cancer), 48 h
Description: The assay is conducted according to the procedure published previously (Monks, A. et al., J. Natl. Cancer Inst. 83,:757-766, 1991). Briefly, cell suspensions that were diluted according to the particular cell type and the expected target cell density (5000-40,000 cells per well based on cell growth characteristics) were added by pipette (100 μl) into 96-well microtiter plates. Inoculates were allowed a preincubation period of 24h at 37° C. for stabilization. Dilutions at twice the intended test concentrations of the test compounds were added at time zero in 100 μl aliquots to the microtiter plate wells. The plates were incubated for 48 h in 5% CO2 atmosphere and 100% humidity. The cells were assayed by using the sulforhodamine B assay (Rubinstein, L. V. et al. J. Natl. Cancer Inst. 82:1113-118, 1990; Skehan, P. et al., J. Natl. Cancer Inst. 82:1107-1112, 1990). The plates were read by a plate reader. The following parameters were calculated from the optical densities:
GI50, concentration of drug that causes 50% growth inhibition; where (T−T0)/(C−T0)×100=50

SMILES: N=c1nc(N)c2ncn([C@@H]3O[C@H](COC(=O)c4ccccc4)[C@@H](OC(=O)c4ccccc4)[C@H]3OC(=O)c3ccccc3)c2c(N)n1 [4,8-Diamino-6H-6-imino-1(2′,3′,5′-tri-O-benzoyl-β-D-ribofuranosyl)imidazo[4,5-e][1,3]diazepine]
- GI50: 8.38 µM
- TGI: 24 µM
- CC50: 62.4 µM

SMILES: N=c1[nH]c(=O)c2ncn([C@@H]3O[C@H](CO)[C@@H](O)[C@H]3O)c2c(=O)[nH]1 [Compound 14-1, 6-Imino-6H-1-β-D-ribofuranosyl-4,5,7,8-tetrahydroimidazo[4,5-e][1,3]diazepine-4,8-dione]
- GI50: > 100 µM
- TGI: >100 µM
- CC50: > 100 µM

SMILES: N=c1nc(N)c2ncn([C@@H]3O[C@H](CO)[C@@H](O)[C@H]3O)c2c(N)n1 [Compound 14-2, 4,8-Diamino-6H-6-imino-1-β-D-ribofuranosylimidazo[4,5-e][1,3]diazepine]
- GI50: 25.3 µM
- TGI: 89 µM
- CC50: > 100 µM
